Some of the results follow. Repeats are few or missing, and single values can be far off.
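Also: cells treated in 1,536-well plates, then fixed and DAPI-stained, with nuclei counted from automated high-throughput microscope images.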

The subject of this assay is A2058. Briefly: cell count relative to DMSO control; melanoma cells; higher = more viable cells. As to conditions: library dose: standard library concentration; 72 h.
`C[C@@H]1CCN(C(=O)CC#N)C[C@@H]1N(C)c1ncnc2[nH]ccc12` + N#Cc1c(O)c2c(-c3ccc(-c4ccccc4O)cc3)csc2[nH]c1=O [A769662] (first compound 5 µM, partner dose 10 µM) showed a cell count of 117%.

As for `O=C(O)c1ccc(-c2c[nH]c3ncc(-c4ccccc4)cc23)cc1C1CCCC1` + Oc1nc(-c2ccc(C(F)(F)F)cc2)nc2c1CSCC2 [XAV939] (first compound 0.8 µM, partner dose 10 µM), the cell count worked out at 81.8%.

The molecule `COc1cc(Nc2ncc(F)c(Nc3ccc4c(n3)NC(=O)C(C)(C)O4)n2)cc(OC)c1OC` [Tamatinib] + N#Cc1c(O)c2c(-c3ccc(-c4ccccc4O)cc3)csc2[nH]c1=O [A769662] (first compound 2 µM, partner dose 10 µM) registered a cell count of 76.5%.

With `Cn1cncc1[C@@](N)(c1ccc(Cl)cc1)c1ccc2c(c1)c(-c1cccc(Cl)c1)cc(=O)n2C` [tipifarnib] + COc1ccc(-c2ccc3c(N4CCOCC4)nc(N4C[C@@H](C)O[C@@H](C)C4)nc3n2)cc1CO [KU0063794] (first compound 0.05 µM, partner dose 0.1 µM), the cell count was found to be 63.3%.

The molecule `O=C(O)c1ccc(-c2c[nH]c3ncc(-c4ccccc4)cc23)cc1C1CCCC1` + Cc1cc([N+](=O)[O-])ccc1NS(=O)(=O)c1cc(Cl)ccc1Cl [FH535] (first compound 0.8 µM, partner dose 5 µM) had a cell count of 80%.

Regarding `COc1cc(Nc2ncc(F)c(Nc3ccc4c(n3)NC(=O)C(C)(C)O4)n2)cc(OC)c1OC` [Tamatinib] + COc1ccc(COc2ccc(Cc3cnc(N)nc3N)cc2OC)cc1 [GW2580] (first compound 2 µM, partner dose 5 µM), the cell count is 80.2%.

Turning to `O=C(O)c1ccc(-c2c[nH]c3ncc(-c4ccccc4)cc23)cc1C1CCCC1` + Cn1cc(/C=C2\C(=O)Nc3cccnc32)c2ccccc21 [GW441756] (first compound 0.8 µM, partner dose 2 µM), the cell count was 98%.

On to `O=c1[nH]nc(Sc2ncc([N+](=O)[O-])s2)n1-c1ccc2c(c1)OCCO2` + COc1ccc(-c2ccc3c(N4CCOCC4)nc(N4C[C@@H](C)O[C@@H](C)C4)nc3n2)cc1CO [KU0063794] (first compound 1 µM, partner dose 0.1 µM), for which the cell count was found to be 99.2%.

Turning to `C[C@@H]1CCN(C(=O)CC#N)C[C@@H]1N(C)c1ncnc2[nH]ccc12` + c1cc(-c2cnn3cc(-c4ccc(OCCN5CCCCC5)cc4)cnc23)ccn1 [Dorsomorphin] (first compound 5 µM, partner dose 2 µM), the cell count stood at 95.9%.

In turn, `O=C(O)c1ccc(-c2c[nH]c3ncc(-c4ccccc4)cc23)cc1C1CCCC1` + CCN(CC)CCCCNc1ncc2cc(-c3cc(OC)cc(OC)c3)c(NC(=O)NC(C)(C)C)nc2n1 [PD173074] (first compound 0.8 µM, partner dose 0.5 µM) came in with a cell count of 100%.

In turn, `CC1(C)NC(=O)N(c2ccc([N+](=O)[O-])c(C(F)(F)F)c2)C1=O` [nilutamide] + O=S(=O)(c1ccccc1)N(CC(F)(F)F)c1ccc(C(O)(C(F)(F)F)C(F)(F)F)cc1 [T0901317] (first compound 5 µM, partner dose 7 µM) registered a cell count of 83.9%.

The molecule `O=C(Nc1cccc(Cl)c1)Nc1ncc(CCNc2ncnc3ccsc23)s1` + N#Cc1c(O)c2c(-c3ccc(-c4ccccc4O)cc3)csc2[nH]c1=O [A769662] (first compound 0.004 µM, partner dose 10 µM) had a cell count of 65.4%.

For `O=C(Nc1cccc(Cl)c1)Nc1ncc(CCNc2ncnc3ccsc23)s1` + COc1ccc(-c2ccc3c(N4CCOCC4)nc(N4C[C@@H](C)O[C@@H](C)C4)nc3n2)cc1CO [KU0063794] (first compound 0.004 µM, partner dose 0.1 µM), the cell count was found to be 84.5%.

With `C[C@@H]1CCN(C(=O)CC#N)C[C@@H]1N(C)c1ncnc2[nH]ccc12` + Cc1cc([N+](=O)[O-])ccc1NS(=O)(=O)c1cc(Cl)ccc1Cl [FH535] (first compound 5 µM, partner dose 5 µM), the cell count is 86.3%.

For the molecule `COc1cc(Nc2ncc(F)c(Nc3ccc4c(n3)NC(=O)C(C)(C)O4)n2)cc(OC)c1OC` [Tamatinib] + COc1cc2ncnc(Nc3ccc(Oc4ccccc4)cc3)c2cc1OC [SrcI1] (first compound 2 µM, partner dose 10 µM), the cell count came out at 81%.

Consider `Cn1cncc1[C@@](N)(c1ccc(Cl)cc1)c1ccc2c(c1)c(-c1cccc(Cl)c1)cc(=O)n2C` [tipifarnib] + Cn1cc(/C=C2\C(=O)Nc3cccnc32)c2ccccc21 [GW441756] (first compound 0.05 µM, partner dose 2 µM), for which the cell count came out at 104%.

`O=C(Nc1cccc(Cl)c1)Nc1ncc(CCNc2ncnc3ccsc23)s1` + COc1ccc(COc2ccc(Cc3cnc(N)nc3N)cc2OC)cc1 [GW2580] (first compound 0.004 µM, partner dose 5 µM): the cell count is 80.8%.

`O=C(Nc1cccc(Cl)c1)Nc1ncc(CCNc2ncnc3ccsc23)s1` + Oc1nc(-c2ccc(C(F)(F)F)cc2)nc2c1CSCC2 [XAV939] (first compound 0.004 µM, partner dose 10 µM): the cell count was found to be 81.1%.

Regarding `C[C@@H]1CCN(C(=O)CC#N)C[C@@H]1N(C)c1ncnc2[nH]ccc12` + CCN(CC)CCCCNc1ncc2cc(-c3cc(OC)cc(OC)c3)c(NC(=O)NC(C)(C)C)nc2n1 [PD173074] (first compound 5 µM, partner dose 0.5 µM), the cell count worked out at 83.7%.

In turn, `O=C(O)c1ccc(-c2c[nH]c3ncc(-c4ccccc4)cc23)cc1C1CCCC1` + O=C1NC(=O)/C(=C/c2ccc(-c3ccc(F)cc3O)o2)S1 [AS252424] (first compound 0.8 µM, partner dose 5 µM) showed a cell count of 93.5%.

Molecule `C[C@@H]1CCN(C(=O)CC#N)C[C@@H]1N(C)c1ncnc2[nH]ccc12` + COC(=O)c1sccc1S(=O)(=O)Nc1ccc(Nc2ccccc2)cc1OC [GSK0660] (first compound 5 µM, partner dose 5 µM) had a cell count of 112%.

`COc1cc(Nc2ncc(F)c(Nc3ccc4c(n3)NC(=O)C(C)(C)O4)n2)cc(OC)c1OC` [Tamatinib] + O=C(Nc1ccccc1)c1cc([N+](=O)[O-])ccc1Cl [GW9662] (first compound 2 µM, partner dose 10 µM) registered a cell count of 84.4%.

`CC1(C)NC(=O)N(c2ccc([N+](=O)[O-])c(C(F)(F)F)c2)C1=O` [nilutamide] + CCN(CC)CCCCNc1ncc2cc(-c3cc(OC)cc(OC)c3)c(NC(=O)NC(C)(C)C)nc2n1 [PD173074] (first compound 5 µM, partner dose 0.5 µM) showed a cell count of 95.2%.

As for `Cn1cncc1[C@@](N)(c1ccc(Cl)cc1)c1ccc2c(c1)c(-c1cccc(Cl)c1)cc(=O)n2C` [tipifarnib] + COc1cc(N2CCC(N3CCN(C)CC3)CC2)ccc1Nc1ncc(Cl)c(Nc2ccccc2S(=O)(=O)C(C)C)n1 [NVP-TAE684] (first compound 0.05 µM, partner dose 0.4 µM), the cell count turned out to be 55.7%.

Molecule `C[C@@H]1CCN(C(=O)CC#N)C[C@@H]1N(C)c1ncnc2[nH]ccc12` + Cn1cc(/C=C2\C(=O)Nc3cccnc32)c2ccccc21 [GW441756] (first compound 5 µM, partner dose 2 µM) registered a cell count of 105%.

`CC1(C)NC(=O)N(c2ccc([N+](=O)[O-])c(C(F)(F)F)c2)C1=O` [nilutamide] + COc1cc2ncnc(Nc3ccc(Oc4ccccc4)cc3)c2cc1OC [SrcI1] (first compound 5 µM, partner dose 10 µM) displayed a cell count of 106%.

`Cn1cncc1[C@@](N)(c1ccc(Cl)cc1)c1ccc2c(c1)c(-c1cccc(Cl)c1)cc(=O)n2C` [tipifarnib] + O=C(O)C(=O)Nc1sc2c(c1C(=O)O)CCNC2 [TCS401] (first compound 0.05 µM, partner dose 8.33333 µM) registered a cell count of 85.2%.

The molecule `O=c1[nH]nc(Sc2ncc([N+](=O)[O-])s2)n1-c1ccc2c(c1)OCCO2` + Oc1nc(-c2ccc(C(F)(F)F)cc2)nc2c1CSCC2 [XAV939] (first compound 1 µM, partner dose 10 µM) displayed a cell count of 63.5%.

The values above are taken from the supplement of paper PMC4604168 (melanoma cell lines).
